These are yes or no findings as the source states them, for the method shown. For part of these data: Binding seen in cells or lysates may run through a third protein. Some entries that bind do so weakly or less than the wild type.

For assay [1], the target named is NEU1-Flag G321I mutant (human) (UniProt Q99519). The experiment in a line: co-IP; NEU1-Flag constructs immunoprecipitated with mouse monoclonal anti-Flag on protein G sepharose (2 h, 4 °C) from crude membranes of co-transfected COS-7 cells solubilised in TEM buffer with 1% CHAPS; NEU1-HA detected by anti-HA western blot. (In general: A western blot detects proteins with antibodies after separation by electrophoresis.)

In assay [2] the target is Wild-type human NEU1-Flag (human) (UniProt Q99519). The assay is described as above.
Assay [3] addresses NEU1-Flag G328I mutant (human) (UniProt Q99519). The description is as above.
In assay [4] the target is NEU1-Flag V330A mutant (human) (UniProt Q99519). The assay is described as above.
Assay [5] has as its target NEU1-Flag A319V mutant (human) (UniProt Q99519). The description is as above.
Assay [6] has as its target NEU1-Cub-PLV (human) (UniProt Q99519). Briefly: two-hybrid; split-ubiquitin yeast two hybrid in THY.AP4 yeast; bait NEU1-Cub-PLV (Met-repressible), prey NEU1-NubG; growth on interaction-selective medium (CSM -Leu -Trp -Ade -His) with or without 5, 50 and 500 uM Met, 48 h at 30 °C.

On to “NEU1-HA (from UniProt Q99519 48-415) (enzyme)”, for which the binding entry in assay [1] is listed as “no binding”; in assay [2], “binds”; in assay [3], “no binding”; in assay [4], “no binding”; in assay [5] it was “no binding”.
Take “NEU1-NubG (from UniProt Q99519 48-415) (enzyme)”: in assay [6], the binding entry is “binds”.
